Hit rate of the full screen: of about 45,000 compounds, about 200 (0.44%) were called active. About 7% were inconclusive and are not listed. Calls follow the shape of the dose curve; as a rule, active = well fitted activation curve with a large enough effect; inconclusive = small, poorly fitted or top-dose-only effect; inactive = no such curve, though single readings can be large or run the other way. Some of the results follow.
Assay: qHTS of TDP-43 Inhibitors: NCGC Sytravon Library Screen; also: 0% is about no effect; nearly all actives have a fitted effect of over 55% in size
Conditions: yeast TDP-43 toxicity rescue, BacTiter-Glo growth, 24 h; series mostly up to 46.1 µM; growth rescue (activation): at the top concentration
Method in brief: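 TDP-43-expressing yeast, pregrown in raffinose, seeded at OD600 0.02 in galactose medium with compound for 24 hr at 30 deg C. Growth read by BacTiter-Glo luminescence, so rescue of toxicity appears as activation.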

| Structure (SMILES) | growth rescue (activation) |
| --- | --- |
| COc1ccc(Cc2nnc(NS(=O)(=O)c3ccccc3)s2)cc1 | inactive: -3.82% |
| NS(=O)(=O)c1ccc2nc(NC(=O)Nc3ccccc3F)sc2c1 | inactive: -32.2% |
| COc1cccc(CNC(=O)CN(C)S(=O)(=O)c2ccc(Br)s2)c1 | inactive: 17% |
| O=C(CSc1nc2cc(S(=O)(=O)N3CCOCC3)ccc2o1)Nc1c(F)cccc1F | inactive: -1.43% |
| Cn1c(=O)cc(Cl)[nH]c1=O | inactive: -12.8% |
| Cc1c(C(=O)N/N=C/c2cccs2)nc2ccccn12 | inactive: 20.2% |
| CCC(CC)C(=O)N(C)c1c(C)nc2c(OCCOc3ccc(F)cc3)cccn12 | inactive: 7.22% |
| Cc1cc(N)n2nc(C(F)(F)F)nc2n1 | inactive: -1.51% |
| O=C(O)C12CC3CC(C1)CC(n1ncc(NCc4ccccc4)c(Cl)c1=O)(C3)C2 | inactive: 3.19% |
| Cc1ccc2cccc(OCC(=O)Nc3ccc(N4CCOCC4)cc3)c2n1 | inactive: -13.3% |
| CC1CCN(C(=O)C(C)NCc2ccc(F)cc2)CC1 (configuration not stated) | inactive: -4.59% |
| Cc1ccc(NC(=S)NC(=O)/C=C/c2ccco2)c(O)c1 | inactive: 5.85% |
| NC(c1ccccc1)c1csc(NC(=O)Nc2ccc(OC(F)(F)F)cc2)n1 (configuration not stated) | inactive: 17.4% |
| O=C(NCCc1ccccc1)C1CCC(CNS(=O)(=O)c2cccs2)CC1 (configuration not stated) | inactive: 12.3% |
| COc1ccc(N2CCN(C(=O)CNS(=O)(=O)c3ccc(Br)s3)CC2)cc1 | inactive: 24.1% |
| CCC(=O)Nc1ccc(C(=O)n2ccc(C)n2)cc1 | inactive: 26.9% |
| Cc1cc(NC(=O)CN2C(=O)NC3(CCC(C)CC3)C2=O)no1 (configuration not stated) | inactive: 1.97% |
| Cc1c(NC(=S)N2CCN(c3cccc(Cl)c3)CC2)c(=O)n(-c2ccccc2)n1C | inactive: -1.68% |
| Cc1ccccc1Nc1nc(N)nc(COC(=O)[C@@H](NC(=O)c2ccco2)C(C)C)n1 | inactive: 4.66% |
| CCOC(=O)C1=C(C)NC(=O)NC1c1ccc(OCC(=O)N2CCCCC2)cc1 (configuration not stated) | inactive: 13.4% |
| Cn1c(=O)c2cc(NC(=O)CCc3ccccc3)ccc2n1-c1ccccc1F | inactive: 5.43% |
| Cc1nc2nc(SCc3nc4ccccc4[nH]3)[nH]c2cc1Br | inactive: -6.88% |

| Structure (SMILES) | growth rescue (activation) |
| --- | --- |
| Nc1cc(Cl)ccc1C(=O)OCC(=O)NCC1CCCO1 (configuration not stated) | inactive: -6.74% |
| CCCCCCCC(=O)Oc1ccc(C(=O)Nc2cc(C)on2)cc1 | inactive: -1.33% |
| COC(=O)N/N=C1\CCCc2c(C)cc(C)cc21 | inactive: 14.6% |
| COc1ccc(-n2c(SCC(=O)N3CCC(C(=O)O)CC3)nc3ccccc3c2=O)cc1OC | inactive: -21.4% |
| O=C(O)c1cccc(N/N=C/c2cccc3ccccc23)c1 | inactive: 15.2% |
| O=C(Nc1ccc(N2CCOCC2)cc1)Nc1ccc2nsnc2c1 | inactive: -16% |
| O=C(CN(C(=O)c1ccccc1)N1C(=O)CCC1=O)c1cccs1 | inactive: 8.17% |
| CC1CCN(C(=O)COC(=O)c2cc3ccccc3oc2=O)CC1 | inactive: -6.09% |
| O=C(CCCN1C(=O)C2CC=CCC2C1=O)Nc1cccc(F)c1 (configuration not stated) | inactive: 9.92% |
| CCCCC(=O)Nc1ccccc1N1CCOCC1 | inactive: -6.3% |
| O=C(OCc1c(F)cccc1Cl)c1cnc(Cl)c(Cl)c1 | inactive: 10.1% |
| Cn1nnnc1SCC(=O)C(C)(C)C | inactive: 4.18% |
| Cn1c(SCc2ccccn2)nnc1-c1ccccc1 | inactive: 11.8% |
| COc1ccc(NC(=O)c2cccc3c(-c4ccc(OC)cc4C)coc23)cc1 | inactive: 26% |
| CCOc1ccccc1CNC(=O)c1oc2ccc3c(c2c1C)C(=O)CC(C)(C)O3 | inactive: 14.4% |
| CC(C)COCc1ccc(O)c2ncccc12 | inactive: 14.8% |
| Cc1cccc(OCC(=O)N/N=C/c2ccc(N(C)C)cc2)c1 | inactive: 7% |
| Cc1cccc(CC2S/C(=N/c3cccc(C)n3)NC2=O)c1 (configuration not stated) | inactive: -1.14% |
| CC(=O)c1cccc(CN2CCCC(C(=O)c3ccc4c(c3)OCO4)C2)c1 (configuration not stated) | inactive: 2.96% |
| NS(=O)(=O)c1ccc(CCNC(=O)c2ccc(OCC3CCCO3)cc2)cc1 (configuration not stated) | inactive: -0.814% |
| CCOC(=O)C1(Cc2cccc(OC)c2)CCN(Cc2csc(C(C)=O)c2)CC1 | inactive: -6.69% |
| Cc1ccnc(NC(=O)c2cccc(OC(F)F)c2)n1 | inactive: -7.01% |

| Structure (SMILES) | growth rescue (activation) |
| --- | --- |
| O=C(Cc1ccccc1)Nc1ccc(N2CCOCC2)cc1 | inactive: -7.18% |
| CCc1nc2c(OCc3ccc(C(=O)OC)cc3)cccn2c1N(C)C(=O)c1ccc(OC)cc1 | inactive: -6.07% |
| O=C(NC1CCCC1)C(c1ccncc1)N(C(=O)Cc1cccs1)c1cccc(F)c1 (configuration not stated) | inactive: 4.13% |
| O=C(Nc1ccc(OCCO)cc1)c1csc([C@@H]2C[C@H](O)[C@@H](CO)O2)n1 | inactive: 4.28% |
| O=C(Nc1ccc2c(c1)CCC2)c1c(F)cccc1Cl | inactive: 7.77% |
| COC(=O)CCCCCCCCC(O)CN1CCCCC1 (configuration not stated) | inactive: 5.71% |
| O=C(O)c1ccc2c(c1)C(=O)N(CCCCCCCN1C(=O)c3ccc(C(=O)O)cc3C1=O)C2=O | inactive: 8.05% |
| COc1cc(OC)cc(-c2noc(-c3csc([C@H]4C[C@H](O)[C@@H](CO)O4)n3)n2)c1 | inactive: -2.88% |
| COc1ccc2c(C)cc(SCC(=O)NC3CCCCC3)nc2c1 | inactive: -17.7% |
| O=[N+]([O-])c1ccc(OCC(O)CNC2CCCC2)cc1 (configuration not stated) | inactive: 11% |
| CCOC(=O)c1ccccc1NC(=O)c1cccc([N+](=O)[O-])c1 | inactive: 5.29% |
| CCCOC(=O)c1c(NC(=O)C2C3C=CC(C3)C2C(=O)O)sc2c1CCC(C)C2 (configuration not stated) | inactive: -7.57% |
| COc1cc(/C=N/NC(=O)C(=O)NCc2ccco2)cc(Br)c1O | inactive: 6.45% |
| CC(/C=N/NC(=O)Cn1cnc2c1c(=O)n(C)c(=O)n2C)=C\c1ccccc1 | inactive: 16.2% |
| C/C(=N\NC(=O)c1cc(C)oc1C)c1ccc2ccccc2c1 | inactive: 16.3% |
| O=C(NCc1ccncc1)C1CCCN1S(=O)(=O)c1ccc(Cl)cc1 (configuration not stated) | inactive: 4.52% |
| CCN(C(C)=O)c1nc(CCl)cs1 | inactive: 16.2% |
| CCCOc1ccc(C2=CSC3=NCCN23)cc1[N+](=O)[O-] | inactive: 8.94% |
| CC(CCc1ccccc1)NC(=O)c1ccccc1C(=O)O (configuration not stated) | inactive: 2.42% |
| COc1ccc(NC(=O)Nc2nnc(-c3ccccc3F)s2)cc1 | inactive: 11.5% |
| COc1cc(C(C(=O)NC2CCCCC2)N(C(=O)Cc2c[nH]c3ccccc23)c2ccccc2C)cc(OC)c1OC (configuration not stated) | inactive: 23.6% |
| Cc1cc([N+](=O)[O-])nn1CC(=O)NCCCN1CCOCC1 | inactive: -3.37% |

| Structure (SMILES) | growth rescue (activation) |
| --- | --- |
| CCn1cc(C(=O)O)c(=O)c2cnc(N3CCN(C(=S)NC(=O)c4ccc(OC)cc4)CC3)nc21 | inactive: 4.73% |
| CCc1nnc(NC(=O)CCN(c2ccc(C)cc2)S(=O)(=O)c2ccccc2)s1 | inactive: 17% |
| Cc1cc(C)cc(-n2nnn(C3C/C(=N/NC(N)=S)C4OCC3O4)c2=S)c1 (configuration not stated) | inactive: 15.2% |
| O=C(NCc1cccnc1)c1csc([C@@H]2O[C@H](CO)[C@H](O)[C@H](O)[C@H]2O)n1 | inactive: -0.177% |
| Cc1cc(C(=O)NC(Cc2ccccc2)C(=O)O)c(C)o1 (configuration not stated) | inactive: -2.19% |
| O=Cc1cnc(N2CCN(c3ccccc3)CC2)s1 | inactive: -2.36% |
| Cc1ccccc1NC(=O)CSc1nc2scc(C)c2c(=O)[nH]1 | inactive: -9.86% |
| Cc1cc(C(=O)N2CCC2(C)C(=O)NCCC#N)nn1C (configuration not stated) | inactive: 5.82% |
| CCCC(=O)OC1CCS(=O)(=O)c2sccc21 (configuration not stated) | inactive: -1.06% |
| CCc1cccc(C)c1NC(=O)COC(=O)Cc1ccsc1 | inactive: -12.9% |
| COc1ccc(CC(NC(C)=O)C(=O)NC2CCN(S(=O)(=O)c3ccc(NC(C)=O)cc3)CC2)c(OC)c1 (configuration not stated) | inactive: 0.571% |
| C=CCS/C(=N\n1cnc2ccccc2c1=O)N(CC)CC | inactive: 3.08% |
| O=C(CNC(=O)c1ccco1)NNC(=O)c1n[nH]c(=O)c2ccccc12 | inactive: 10.7% |
| Cc1ccc(C(=O)O)cc1NC(=O)C1CCN(S(=O)(=O)c2ccc3c(c2)OCCO3)CC1 | inactive: -1.31% |
| CCN(CC)C(=O)c1ccc(COc2ccccc2Cl)o1 | inactive: 26% |
| CCOc1ccc(Cn2c3ccc(OC)cc3c3nc4ccccc4nc32)cc1 | inactive: 7.25% |
| CCOC(=O)c1ccc(NC(=O)c2cc3c(s2)CCC3)cc1 | inactive: -5.34% |
| COc1ccc(C(O)(CCc2ccccc2)CCN2CCCCC2)cc1 (configuration not stated) | inactive: -3.07% |
| COc1ccc(-c2nc(CN3CCC(c4ccccc4)CC3)c(C)o2)cc1OC | inactive: 16.6% |
| CC1CCCCN1Cc1ccc(-c2nn[nH]n2)cc1 (configuration not stated) | inactive: 21.2% |
| CCC(C)(C)NC(=O)C(c1ccncc1)N(Cc1cccs1)C(=O)Cn1nnc2ccccc21 (configuration not stated) | inactive: -16.2% |
| COc1ccc(NC(=O)N2C3CCCC2CC(NC(=O)c2ccccc2)C3)cc1 (configuration not stated) | inactive: 20.3% |

| Structure (SMILES) | growth rescue (activation) |
| --- | --- |
| CCCC1=Nc2cc(C(=O)NCCOC)ccc2Sc2ccccc21 | inactive: 7.39% |
| Cc1ccc(NC(=O)CSc2nc3c(c(=O)n(C)c(=O)n3C)n2C)cc1 | inactive: -1.39% |
| CC(C)(CO)NCC(=O)Nc1cc(C(F)(F)F)cc(NC(=O)CNC(C)(C)CO)c1Cl | inactive: 12% |
| O=C(C[n+]1ccccc1)Nc1c(Cl)cc(Cl)cc1Cl | inactive: 7.74% |
| CN(C)C(CNC(=S)Nc1ccccc1Cl)c1cccnc1 (configuration not stated) | inactive: 7.41% |
| CC(C)NC(=O)c1cc(C2CCCCN2C(=O)c2ccc(C(C)C)cc2)on1 (configuration not stated) | inactive: 3.25% |
| COc1cc(/C=c2/sc3nc(-c4ccccc4)c(-c4ccccc4)n3c2=O)cc(OC)c1OC | inactive: 17.8% |
| c1ccc2c(N3CCCC3)nc(-c3ccncc3)nc2c1 | inactive: 5.14% |
| O=C(Nc1cc(S(=O)(=O)Nc2ccccc2F)ccc1Cl)c1ccc(F)cc1F | inactive: 8.8% |
| COc1ccc(C)cc1NC(=O)C(OC(=O)c1cccc(S(=O)(=O)N(C)c2ccccc2)c1)c1ccccc1 (configuration not stated) | inactive: 4.48% |
| CCN(CC)S(=O)(=O)c1cccc(C(=O)N[C@H](C(=O)NC2=NCCS2)C(C)C)c1 | inactive: 13.1% |
| COc1cc(NC(=O)COC(=O)c2cc(S(=O)(=O)N3CCOCC3)ccc2F)cc(OC)c1 | inactive: 8.21% |
| COc1ccc(CCNC(=O)C/C(C)=N/NC(=O)c2ccc([N+](=O)[O-])cc2Cl)cc1OC | inactive: 9.82% |
| Cc1cc(C(F)(F)F)c(C#N)c(SCC(=O)Nc2nc3ccccc3s2)n1 | inactive: 4.25% |
| COc1cccc(NC(=S)N(CCc2ccc(OC)c(OC)c2)Cc2ccccn2)c1 | inactive: 3.37% |
| CCN1CCN(c2cc(C)c3cc(NC(=S)N4CCCC(C)C4)ccc3n2)CC1 (configuration not stated) | inactive: 20.6% |
| NC1CCCCC1N=Cc1c(O)n(CCc2ccc(F)cc2)c(=O)[nH]c1=O (configuration not stated) | inactive: 8.53% |
| COc1ccc(S(=O)(=O)N2CCCCC2)cc1NC(=O)C1COc2ccccc2O1 (configuration not stated) | inactive: 17.2% |
| CC(NC(=O)c1ccccc1NC(=O)c1ccccc1)C(=O)N1CCOCC1 (configuration not stated) | inactive: -2.04% |

Reference: PubChem BioAssay AID1347073 (National Center for Advancing Translational Sciences (NCATS), 2019)
